Measurements as given in paper PMC8558294, “Defects in the STIM1 SOARα2 domain affect multiple steps in the CRAC channel activation cascade” (Cellular and Molecular Life Sciences: CMLS, 2021).

Target: Orai1 V102A (human, UniProt Q96D31-1 1-301, V102A)
Assay: cell-based or functional assay

Chain of Orai1 V102A (Q96D31 whole entry V102A): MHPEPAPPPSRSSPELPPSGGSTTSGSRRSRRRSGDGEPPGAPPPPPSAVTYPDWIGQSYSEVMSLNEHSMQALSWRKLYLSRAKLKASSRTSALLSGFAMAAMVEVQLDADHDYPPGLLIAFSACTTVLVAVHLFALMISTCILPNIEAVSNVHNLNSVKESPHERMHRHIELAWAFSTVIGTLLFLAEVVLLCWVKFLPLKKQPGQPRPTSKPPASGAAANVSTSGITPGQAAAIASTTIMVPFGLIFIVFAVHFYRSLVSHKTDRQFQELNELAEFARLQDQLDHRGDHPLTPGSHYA

Row | Binder | Vrev [mV] of Orai1 V102A currents, whole-cell patch clamp in HEK293 cells
1 | STIM1 WT (wild-type), CFP/YFP-labeled (natural protein, human) LSHSHSEKATGTSSGANSEESTAAEFCRIDKPLCHSEDEKLSFEAVRNIHKLMDDDANGDVDVEESDEFLREDLNYHDPTVKHSTFHGEDKLISVEDLWKAWKSSEVYNWTVDEVVQWLITYVELPQYEETFRKLQLSGHAMPRLAVTNTTMTGTVLKMTDRSHRQKLQLKALDTVLFGPPLLTRHNHLKDFMLVVSIVIGVGGCWFAYI[not shown - about 450 residues]RKKFPLKIFKKPLKK | 49.3 mV
2 | STIM1 F394A, CFP/YFP-labeled (natural protein, human) LSHSHSEKATGTSSGANSEESTAAEFCRIDKPLCHSEDEKLSFEAVRNIHKLMDDDANGDVDVEESDEFLREDLNYHDPTVKHSTFHGEDKLISVEDLWKAWKSSEVYNWTVDEVVQWLITYVELPQYEETFRKLQLSGHAMPRLAVTNTTMTGTVLKMTDRSHRQKLQLKALDTVLFGPPLLTRHNHLKDFMLVVSIVIGVGGCWFAYI[not shown - about 450 residues with changes]RKKFPLKIFKKPLKK | 46.7 mV
3 | STIM1 F394H, CFP/YFP-labeled (natural protein, human) LSHSHSEKATGTSSGANSEESTAAEFCRIDKPLCHSEDEKLSFEAVRNIHKLMDDDANGDVDVEESDEFLREDLNYHDPTVKHSTFHGEDKLISVEDLWKAWKSSEVYNWTVDEVVQWLITYVELPQYEETFRKLQLSGHAMPRLAVTNTTMTGTVLKMTDRSHRQKLQLKALDTVLFGPPLLTRHNHLKDFMLVVSIVIGVGGCWFAYI[not shown - about 450 residues with changes]RKKFPLKIFKKPLKK | 58.1 mV
4 | STIM1 F394D, CFP/YFP-labeled (natural protein, human) LSHSHSEKATGTSSGANSEESTAAEFCRIDKPLCHSEDEKLSFEAVRNIHKLMDDDANGDVDVEESDEFLREDLNYHDPTVKHSTFHGEDKLISVEDLWKAWKSSEVYNWTVDEVVQWLITYVELPQYEETFRKLQLSGHAMPRLAVTNTTMTGTVLKMTDRSHRQKLQLKALDTVLFGPPLLTRHNHLKDFMLVVSIVIGVGGCWFAYI[not shown - about 450 residues with changes]RKKFPLKIFKKPLKK | 27.4 mV
